Test results as given in the supplement of paper PMC8813932.
Where a name gives a salt, the structure may show the parent alone. The list shows a part of the results. Single values are uncertain, as repeats are few or missing.

tested on: Ov4Carbo; assay: log2 surviving fraction relative to plate median (drug vs vehicle, or drug+dl922-947 vs dl922-947 alone); ovarian cancer lines: OVCAR4 is platinum-sensitive while Ov4Cis resists cisplatin and Ov4Carbo carboplatin; higher = more cell survival; conditions: dl922-947 oncolytic adenovirus co-treatment: MOI 10; compound concentration: 10 uM; 192 h

SMILES | log2 surviving fraction
C[C@@H](c1ncncc1F)[C@](O)(Cn1cncn1)c1ccc(F)cc1F [Voriconazole] | -0.252
C=CCOc1ccccc1OCC(O)CNC(C)C (centres undefined) [Oxprenolol HCl] | 0.866
NC(=O)N1c2ccccc2C=Cc2ccccc21 [Carbamazepine (Carbatrol)] | -0.0682
CN1C2=CC(=O)/C(=N\NC(N)=O)C=C2CC1S(=O)(=O)O (centres undefined) [Carbazochrome sodium sulfonate] | 0.747
COc1ccccc1OCC(O)CO (centres undefined) [Guaifenesin (Guaiphenesin)] | 0.384
Cc1ccc(C(=O)Nc2ccc(CN3CCN(C)CC3)c(C(F)(F)F)c2)cc1C#Cc1cnc2cccnn12 | -8.42
COc1ccc(C(=O)N2CCCC2=O)cc1 [Aniracetam] | 0.595
C[C@H](Cn1cnc2c(N)ncnc21)OCP(=O)(O)O [Tenofovir (Viread)] | 0.274
CN(C)CCCN1c2ccccc2CCc2ccc(Cl)cc21 [Clomipramine hydrochloride (Anafranil)] | -3.01
Nc1ccc(S(=O)(=O)Nc2ccccn2)cc1 [Sulfapyridine (Dagenan)] | 1.57
Oc1c(Cl)cc(Cl)c2cccnc12 [Chloroxine] | -1.9
CC1(C)S[C@@H]2[C@H](NC(=O)C(C(=O)O)c3ccccc3)C(=O)N2[C@H]1C(=O)O (some centres undefined) [Carbenicillin disodium] | 0.994
CCC(C)n1ncn(-c2ccc(N3CCN(c4ccc(OCC5COC(Cn6cncn6)(c6ccc(Cl)cc6Cl)O5)cc4)CC3)cc2)c1=O (centres undefined) [Itraconazole (Sporanox)] | 0.113
Oc1ccc(OCc2ccccc2)cc1 [Monobenzone (Benoquin)] | -3.62
C[N+](C)(C)CCO.[Cl-] [Choline Chloride] | 0.985
CN1CCC(=C2c3ccccc3CCc3sccc32)CC1 [Pizotifen malate] | -2.69
CO[C@H]1/C=C/O[C@@]2(C)Oc3c(C)c(O)c4c(c3C2=O)C2=NC3(CCN(CC(C)C)CC3)NC2=C(NC(=O)/C(C)=C\C=C\[C@H](C)[C@H](O)[C@@H](C)[C@@H](O)[C@@H](C)[C@H](OC(C)=O)[C@@H]1C)C4=O [Rifabutin (Mycobutin)] | -0.193
C#C[C@]1(O)CC[C@H]2[C@@H]3CCc4cc(O)ccc4[C@H]3CC[C@@]21C [Ethinyl Estradiol] | -0.131
C[C@@H](O[C@H]1OCCN(Cc2n[nH]c(=O)[nH]2)[C@H]1c1ccc(F)cc1)c1cc(C(F)(F)F)cc(C(F)(F)F)c1 [Aprepitant (MK-0869)] | -0.388
Cc1cc(C2CCCCC2)n(O)c(=O)c1 [Ciclopirox ethanolamine] | -7.3

SMILES | log2 surviving fraction
NC(=O)c1ncn([C@@H]2O[C@H](CO)[C@@H](O)[C@H]2O)c1N [Acadesine] | 0.6
O=C(O)CCc1nc2ccccc2[nH]1 [Procodazole] | 0.367
Cc1ccnc(NS(=O)(=O)c2ccc(N)cc2)n1 [Sulfamerazine] | 0.254
O=C1O[C@H]([C@@H](O)CO)C([O-])=C1O.[Na+] [Sodium ascorbate] | 0.972
CN1[C@@H]2CC[C@H]1C[C@@H](OC(=O)C(CO)c1ccccc1)C2 (some centres undefined) [Atropine] | -0.889
Cc1cnc(C(=O)O)c[n+]1[O-] [Acipimox] | -0.256
Cn1c(=O)c2[nH]cnc2n(C)c1=O [Aminophylline (Truphylline)] | -0.406
C[N+](C)(CCOc1ccccc1)Cc1ccccc1.O=C([O-])c1cc2ccccc2cc1O [Bephenium Hydroxynaphthoate] | 0.726
Nc1nnc(-c2cccc(Cl)c2Cl)c(N)n1 [Lamotrigine] | 0.206
CC(C)NCC(O)c1ccccc1Cl (centres undefined) [Clorprenaline HCL] | -0.155
O=C(O)c1ccc(-n2nc(-c3ccccc3O)nc2-c2ccccc2O)cc1 [Deferasirox (Exjade)] | -2.61
CN(N=O)C(=O)N[C@@H](C=O)[C@@H](O)[C@H](O)[C@H](O)CO [Streptozotocin (Zanosar)] | 0.767
O=C1CC[C@@]2(O)[C@H]3Cc4ccc(O)c5c4[C@@]2(CCN3CC2CC2)[C@H]1O5 [Naltrexone HCl] | -0.214
CCCN1CCCC[C@H]1C(=O)Nc1c(C)cccc1C [Ropivacaine HCl] | -1.4
C[C@]12CC[C@H](O)CC1=CC[C@@H]1[C@@H]2CC[C@]2(C)C(c3cccnc3)=CC[C@@H]12 [Abiraterone (CB-7598)] | 1.14
C=CC(=O)N1CCC[C@@H](n2nc(-c3ccc(Oc4ccccc4)cc3)c3c(N)ncnc32)C1 | -1.59
Cn1c(=O)c2c(ncn2CC(O)CO)n(C)c1=O (centres undefined) [Dyphylline (Dilor)] | 0.0923
C=C1/C(=C\C=C2/CCC[C@]3(C)[C@@H]([C@H](C)/C=C/[C@H](C)C(C)C)CC[C@@H]23)C[C@@H](O)C[C@@H]1O [Doxercalciferol (Hectorol)] | -0.48
O=C(O)c1cc(-c2ccccc2)nc2ccccc12 [Cinchophen] | 0.289
